From the supplement of paper PMC10126150
Values marked as one replicate rest on one cluster of the flow cell; about a third of the high ones do not repeat.

Tested on: ATP
Assay: switch fluorescence ratio, 500 uM ATP over buffer (Cy3 cluster intensity, sum of 5 cycles each) (fold (ratio)); higher = stronger signal-on switching upon ATP binding; sequences stand for … in TCGTCGGCAGCGTCAGATGTGTATAAGAGACAGTTTTTTTTTTTTTTTTTTTTTTTTT…TC
Settings: aptamer strand: ATP DNA aptamer (quencher-CACCTGGGGGAGTATTGCGGAGGAAGG + anchor), 100 nM annealed; ATP concentration: 500 uM; one replicate
Method in brief: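 Cy3-labelled switching-strand clusters on a modified Illumina MiSeq flow-cell were annealed to 100 nM quencher-labelled ATP aptamer and imaged first in selection buffer, then after 15 min with 500 uM ATP at 22 °C. NaOH stripping and re-annealing separated each of five buffer/ATP cycles, and clusters outside 100-1000 RFU were excluded. The fluorescence ratio sums target-cycle Cy3 intensity over buffer-cycle Cy3 intensity per cluster and averages it per switch-domain sequence.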
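Also: ATP exposure 15 min at 22 °C before imaging.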

ACCGAGAACG
switch fluorescence ratio: 1.18

TGCAATAACA
switch fluorescence ratio: 1.11

TTTCTCCGCG
switch fluorescence ratio: 4.46

GTAGTCGGTT
switch fluorescence ratio: 0.985

AAGAGAGTGG
switch fluorescence ratio: 0.989

GTGAGGCTGT
switch fluorescence ratio: 0.949

ACACCTCGTC
switch fluorescence ratio: 1.03

CAGTCAAACA
switch fluorescence ratio: 1.01

AGGGCCATAT
switch fluorescence ratio: 1.03

GCAATCAGGG
switch fluorescence ratio: 1.43

CGTAGGTTGA
switch fluorescence ratio: 1.03

CTGGTGTTGT
switch fluorescence ratio: 1.04

CAATACGTA
switch fluorescence ratio: 1.11

TTACGTTACC
switch fluorescence ratio: 1.66

TGCGGCTCTA
switch fluorescence ratio: 0.961

TCAGTAGGAC
switch fluorescence ratio: 1.04

TGACCATGGT
switch fluorescence ratio: 1.01

TCACTGTCCC
switch fluorescence ratio: 1.01

TAAAACTATT
switch fluorescence ratio: 1

ATAGTAAATT
switch fluorescence ratio: 0.993

TTCCGAGTCT
switch fluorescence ratio: 1.12

CAGGTTGGCT
switch fluorescence ratio: 1.02

AATGCGGTTA
switch fluorescence ratio: 1.02

CATCTCAGGG
switch fluorescence ratio: 1.02

CGATAGAGCT
switch fluorescence ratio: 1.02

GTTCCCCGTA
switch fluorescence ratio: 1.06

CGGCTATA
switch fluorescence ratio: 1.1

AAGTGCCCTA
switch fluorescence ratio: 0.975

GCCGGGGGAT
switch fluorescence ratio: 0.985

CATTAAGTG
switch fluorescence ratio: 0.979

ACGTTCGCCT
switch fluorescence ratio: 1.01

GGGGCGTGAA
switch fluorescence ratio: 0.978

AACGGGGATC
switch fluorescence ratio: 1.01

GAACGCGCCG
switch fluorescence ratio: 1.06

GGGACTTTAG
switch fluorescence ratio: 0.935

GCTAAATAGT
switch fluorescence ratio: 1.01

CTAAGTGAAT
switch fluorescence ratio: 0.986

CATAGCGTGC
switch fluorescence ratio: 1.11

ATAACTGTAG
switch fluorescence ratio: 1.08

CATACAGGCG
switch fluorescence ratio: 1.07

TGACATGTCA
switch fluorescence ratio: 1.03

ACAGTCCCTT
switch fluorescence ratio: 1.02

GGACTAGGAT
switch fluorescence ratio: 1.02

AGATATGGGA
switch fluorescence ratio: 0.968

CGTAGTGGTC
switch fluorescence ratio: 1.05

ATGAACGGAG
switch fluorescence ratio: 1.03

GTCTTAAGGT
switch fluorescence ratio: 1.01

AGATTGGGT
switch fluorescence ratio: 1.06

TAAGTCGCT
switch fluorescence ratio: 0.973

CTCAGACATT
switch fluorescence ratio: 1.01

ATTTTAGGAG
switch fluorescence ratio: 0.977

ACAATGTTCT
switch fluorescence ratio: 1.03

TGCATCATAG
switch fluorescence ratio: 1.06

GGGCTATTGG
switch fluorescence ratio: 1.01

ACAGTACGG
switch fluorescence ratio: 1.5

TACGCAACCC
switch fluorescence ratio: 2.85

CGCTAAAACG
switch fluorescence ratio: 1.05

TTTTCCACCT
switch fluorescence ratio: 1.04

CACTGGACAA
switch fluorescence ratio: 1.18

ACTCCGGGGT
switch fluorescence ratio: 2.27

TGCATGCGTA
switch fluorescence ratio: 0.978

CCTCTGGATG
switch fluorescence ratio: 1.71

GAAAGTCAGC
switch fluorescence ratio: 0.985

CACAGAGAAA
switch fluorescence ratio: 1.05

AATTCTGTGG
switch fluorescence ratio: 0.991

ACGGGGAACG
switch fluorescence ratio: 1.06

ACGGGTCGC
switch fluorescence ratio: 1.06

GAGTACCTGC
switch fluorescence ratio: 0.918

TAGGTGGGAC
switch fluorescence ratio: 0.983

CTGGGCAGCC
switch fluorescence ratio: 0.995

CTCCGTGGTT
switch fluorescence ratio: 2.47

GAATTTACGA
switch fluorescence ratio: 1.05

TAAATTACGT
switch fluorescence ratio: 1.43

TCGCTGCCCA
switch fluorescence ratio: 0.993

TATCAGATAT
switch fluorescence ratio: 1.04

TGGTGAGAGA
switch fluorescence ratio: 1.02

CGTAGAGATA
switch fluorescence ratio: 0.991

GGCACTGCTT
switch fluorescence ratio: 0.986

AGCGCTCATG
switch fluorescence ratio: 1.03

GACGCCGCAG
switch fluorescence ratio: 4.44

GAAGCTAGAG
switch fluorescence ratio: 1.34

GTCCGCGGGT
switch fluorescence ratio: 1.07

GGGAACCCGT
switch fluorescence ratio: 0.98

CTTGTCTGCC
switch fluorescence ratio: 0.997

CTCTGCCATG
switch fluorescence ratio: 1.36

CCGATTCAGA
switch fluorescence ratio: 1.35

ATACGGGAG
switch fluorescence ratio: 1.01

TTCGGTATAT
switch fluorescence ratio: 1.01

GATTCGTCAT
switch fluorescence ratio: 1

TCAAATGTTG
switch fluorescence ratio: 0.975

AAATAGAGAA
switch fluorescence ratio: 0.988

TTATGCACAT
switch fluorescence ratio: 1.06

GCATTAGTCA
switch fluorescence ratio: 1.04

ACTCTTTGGA
switch fluorescence ratio: 0.994

AGATGTAAAG
switch fluorescence ratio: 1.01

GCGGGTTAGC
switch fluorescence ratio: 1.07

GGGAAGCTGG
switch fluorescence ratio: 1.12

CATTTGGTTC
switch fluorescence ratio: 0.951

AGGTTTGAGA
switch fluorescence ratio: 1.02

TAGTCGGGTG
switch fluorescence ratio: 1.07

CCAGGACGGG
switch fluorescence ratio: 0.986

GCATAGGTTG
switch fluorescence ratio: 1.03

AACATTAGGG
switch fluorescence ratio: 1.01

CTCGGCACTT
switch fluorescence ratio: 1.56

TCCAATAAAA
switch fluorescence ratio: 0.995

TCCACACAGG
switch fluorescence ratio: 2.65

TGATGACAA
switch fluorescence ratio: 1.1

GCAGAAAACA
switch fluorescence ratio: 0.972

GGTGGCTAAG
switch fluorescence ratio: 1.01

GATTGTAGAC
switch fluorescence ratio: 0.996

TTGTGTGCGG
switch fluorescence ratio: 0.955

TTGGCTAAGG
switch fluorescence ratio: 0.989

CTGTTTCTG
switch fluorescence ratio: 1.02

TTGTTCGCTG
switch fluorescence ratio: 0.964

TACTGGACAC
switch fluorescence ratio: 1.21

GCGTTAAGAA
switch fluorescence ratio: 0.998

AAACGCCCTA
switch fluorescence ratio: 1.02

CGGTCATTTC
switch fluorescence ratio: 1.06

AGTGGTAGCC
switch fluorescence ratio: 0.994

CCCAACCCTG
switch fluorescence ratio: 1.01

TCCGTGATGT
switch fluorescence ratio: 1.04

CAAGTTCGGC
switch fluorescence ratio: 1.03

TGGCCCCAGG
switch fluorescence ratio: 2.88

TAAGGTACTT
switch fluorescence ratio: 1.03

CCACCAGCAT
switch fluorescence ratio: 4.52

ATTTCTATGT
switch fluorescence ratio: 0.983

CTAGACGGTT
switch fluorescence ratio: 0.987

CGGTAATAGG
switch fluorescence ratio: 0.993

TATAGCGCAT
switch fluorescence ratio: 1.04

CAACTCAGCG
switch fluorescence ratio: 1.05

TGCATCTACA
switch fluorescence ratio: 0.999

GCGTGACGG
switch fluorescence ratio: 1.03

CCATATGTTA
switch fluorescence ratio: 0.963

GCTCCGGACG
switch fluorescence ratio: 1.46

CAGCTTCTTC
switch fluorescence ratio: 1.08

CATTAATTAA
switch fluorescence ratio: 0.98

CGGGCATCAA
switch fluorescence ratio: 0.999

CGTGGAATTC
switch fluorescence ratio: 1.05

CCGGTAAACC
switch fluorescence ratio: 1.06

AACCCGGGGG
switch fluorescence ratio: 1.03

AAATGTTACG
switch fluorescence ratio: 1.01

GGGAATGCTG
switch fluorescence ratio: 1.26

CTTATCTGGT
switch fluorescence ratio: 1.02

AAGGGTCACT
switch fluorescence ratio: 0.977

CTGGGACCGC
switch fluorescence ratio: 1.06

GATTCTCTCA
switch fluorescence ratio: 0.965

CGTTCACACG
switch fluorescence ratio: 0.993

ACATTGTCAT
switch fluorescence ratio: 1.01

CGGTTGCGAG
switch fluorescence ratio: 1.03

TCCCGGTGAA
switch fluorescence ratio: 1.1

CGATTGGTTA
switch fluorescence ratio: 1.03

GCCGTGATCA
switch fluorescence ratio: 0.96

CGATGGTTA
switch fluorescence ratio: 0.971

GGTCTGTTTA
switch fluorescence ratio: 0.978

TTCAAGAGCC
switch fluorescence ratio: 1.04

TTGCACTCAT
switch fluorescence ratio: 1.04

ATGGGTATGG
switch fluorescence ratio: 1.07
